In PubChem BioAssay AID686971 (National Center for Advancing Translational Sciences (NCATS), 2013):
The whole screen tested about 360,000 compounds, of which about 7,500 (2.1%) were called active. Inconclusive results, whose numbers are uncertain, are shown with a selection of clear calls. Calls come from the whole dose curve; as a rule, active = well fitted cell-killing curve with a large enough effect; inconclusive = small, poorly fitted or top-dose-only effect, or effect the other way, or another doubt; inactive = no such curve, though single readings can be large or run the other way. Potencies of inconclusive entries are left out as doubtful fits.

test: qHTS for induction of synthetic lethality in tumor cells producing 2HG: qHTS for the HT-1080-IDH1KD cell line; conditions: HT-1080 IDH1 knockdown viability, ATP luminescence, 48 h; activity, negative = toxicity: at 46.1 µM (top of the series) unless noted;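 for activity, negative = toxicity: 0% = DMSO wells and -100% = cell-free medium wells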
Procedure, shortened: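 IDH1KD HT-1080 cells, 750/well, RPMI + 5% FBS; compound pinned after 2 h settling; 48 h, 37 °C; CellTiter-Glo luminescence; % activity normalised to DMSO and no-cell wells; curves fitted, classed by r2 and efficacy.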
Potency is the fitted concentration of half-maximal effect; tags give direction and shape of the fitted curve.

Row | Structure (SMILES) | Potency | activity, negative = toxicity
1 | CCc1cc2c(N3CCN(c4nnc(CC)s4)CC3)ncnc2s1 | inconclusive [cytotoxic, single point] | –
2 | CN1c2ccc(Cl)cc2C(=O)NC1c1ccc([N+](=O)[O-])s1 (stereo not given) | active: 23.1 µM | –
3 | CN1CCN(C(=O)c2cc(-c3ccccc3)on2)CC1 | – | inconclusive: 39.9%
4 | COc1cc(N2CCCC2)c(OC)cc1/C=C1/NC(=S)NC1=O | inactive | –
5 | O=C(NCc1cccc(Br)c1)C1CC2Cn3c(nc4ccccc43)C2N1Cc1ccccc1 (stereo not given) | inactive | –
6 | COc1ccc(/C=N/NC(=O)C2c3ccccc3-c3ccccc32)cc1 | inconclusive [cytotoxic, single point] | –
7 | CN1CCN(c2ccccc2NC(=O)c2ccc(N3CCCCC3)c([N+](=O)[O-])c2)CC1 | inactive | –
8 | Cc1ccc(C)c(N2CCN(C3C(=O)Nc4ccccc4-n4nnnc43)CC2)c1 (stereo not given) | active: 16.4 µM | –
9 | O=C(NCCN1C(=O)S/C(=C\c2ccc(Cl)c([N+](=O)[O-])c2)C1=O)C1=COCCO1 | inconclusive [cytotoxic, single point] | –
10 | NC1CCN(c2c(F)cc3c(=O)c(C(=O)O)cn(C4CC4)c3c2Cl)C1 (stereo not given) | inactive | –
11 | Cc1c(C)c2cccnc2c2ncccc12 | active: 5.17 µM | –
12 | O=C(COc1ccc(-n2ccnc2)cc1)Nc1cccc(F)c1 | inconclusive [cytotoxic, single point] | –
13 | CCOC(=O)c1c(NC(=O)C2CCCN(S(=O)(=O)c3ccccc3)C2)sc2c1CCCC2 (stereo not given) | inconclusive [cytotoxic, single point] | –
14 | CCOC(=O)c1nc2c(ccc3ccccc32)cc1C | inactive | –
15 | NC(N)=Nc1nc(-c2ccccc2)c2cc(F)ccc2n1 | active: 20.6 µM | –
16 | Cc1c(NC(=O)c2ccc3ncccc3c2)c(=O)n(-c2ccccc2)n1C | inactive | –
17 | CC(C)CC(=O)NC(=S)Nc1ccc(N2CCN(C(=O)c3cccs3)CC2)cc1 | inconclusive [cytotoxic, partial curve] | –
18 | Cc1ccn2c(NC(=O)C(C)(C)Oc3ccc(Cl)cc3)c(-c3cccs3)nc2c1 | inconclusive [cytotoxic, single point] | –
19 | O=C(Nc1ccncc1)c1ccc(Cl)c([N+](=O)[O-])c1 | inactive | –
20 | COc1ccc(NC(=O)c2cc3ccc(O)cc3o/c2=N\O)cc1 | inconclusive [cytotoxic, single point] | –
21 | Cc1ccccc1OCC(=O)Nc1ccc([N+](=O)[O-])cc1 | inconclusive [cytotoxic, single point] | –
22 | O=C(Nc1ccc(Cl)c(S(=O)(=O)Nc2ccccc2Cl)c1)c1cccs1 | inconclusive [cytotoxic, single point] | –
23 | CCN1/C(=C/c2ccc3cc(C)ccc3[n+]2C)Sc2ccc3sccc3c21 | inconclusive [cytotoxic, partial curve] | –
24 | Cc1nn(C)c(C)c1NC(=O)COc1ccccc1C#N | inactive | –
25 | CCCC(=O)Nc1ccc(C(=O)NNC(=S)NC(=O)c2ccc(Br)o2)cc1 | inconclusive [cytotoxic, single point] | –

Row | Structure (SMILES) | Potency | activity, negative = toxicity
26 | COc1cccc(NC(=O)c2ccco2)c1 | inactive | –
27 | Cc1ccc(C2=NN=C(NC(=O)CSc3nnc4c5ccccc5n(C)c4n3)SC2)cc1 | active: 29.1 µM | –
28 | COc1cccc(-c2nnc(NC(=O)c3ccc(S(=O)(=O)N4CC(C)OC(C)C4)cc3)o2)c1 (stereo not given) | active: 9.2 µM | –
29 | Cc1cc(O)c(C(C)C)cc1N=Cc1ccccc1[N+](=O)[O-] | active: 16.4 µM | –
30 | C/C(N)=C(/C#N)C(=O)COC(=O)CC12CC3CC(CC(C3)C1)C2 | inconclusive [cytotoxic, single point] | –
31 | NNc1nc2c(Cl)ccc(Cl)c2s1 | inconclusive [cytotoxic, partial curve] | –
32 | CN1CC=C2C(C#N)=C(N)C(C#N)(C#N)[C@H](c3cccs3)[C@H]2C1 | inactive | –
33 | Cc1cc(C)c(O)c(CN(C)Cc2cc(Cl)cc(Cl)c2O)c1 | inconclusive [cytotoxic, single point] | –
34 | CSCCC(NC(=O)c1ccco1)C(=O)N1CC=C(c2ccccc2)CC1 (stereo not given) | inactive | –
35 | CCC(C)Sc1nc2c(c(=O)[nH]c(=O)n2C)n1CC(O)COc1cccc2ccccc12 (stereo not given) | inactive | –
36 | COc1ccc(S(=O)(=O)NCC2CCCN(Cc3cn(C)nc3C)C2)cc1 (stereo not given) | inactive | –
37 | CCN1C(=O)[C@@H]2[C@@H](c3ccc(SC4CCCCC4)c(OC)c3)N3CCCC[C@@]3(C(=O)OC)[C@@H]2C1=O | inconclusive [cytotoxic, single point] | –
38 | COc1ccc(/C=N/Nc2nccnc2Cl)cc1 | active: 11.2 µM | –
39 | CCCN(CCC)c1nc(NC2CCN(C(=O)OCC)CC2)nc(OC)n1 | inconclusive [cytotoxic, single point] | –
40 | CC1(C(=O)Nc2ccccc2F)CCN1C(=O)Cc1ccc(-c2ccccc2)cc1 (stereo not given) | inconclusive [cytotoxic, single point] | –
41 | CC1(C)CC(NC(=O)c2cc(COc3cccc(C(F)(F)F)c3)on2)CCO1 (stereo not given) | inconclusive [cytotoxic, single point] | –
42 | O=C(N/N=C/c1cccc([N+](=O)[O-])c1)c1cc(-c2ccc3c4c(cccc24)CC3)n[nH]1 | inactive | –
43 | COc1cccc(OC)c1C(=O)NC(=S)Nc1ccc2oc(-c3ccncc3)nc2c1 | inactive | –
44 | Cc1cc(Cl)c(OCCN2C(=O)NC(C)(C)C2=O)c(Br)c1 | inactive | –
45 | CCOc1cc(C)c(Cl)cc1S(=O)(=O)NCc1ccc2c(c1)OCO2 | inconclusive [cytotoxic, single point] | –
46 | Cc1cc(C)c2ccc(N)nc2c1O | inconclusive [cytotoxic, single point] | –
47 | Cc1onc(-c2ccccc2)c1C(=O)NNC(=S)NC(=O)c1ccc(Br)cc1 | inconclusive [cytotoxic, partial curve] | –
48 | CN(C)CCN(C(=O)/C=C/c1cccs1)c1nc2ccc(F)cc2s1 | inconclusive [cytotoxic, single point] | –
49 | NC(=O)[C@H]1CC2(CC(c3cccc(NC(=O)COc4ccc(Cl)cc4)c3)=NO2)CN1C(=O)c1ccc(Cl)cc1 (stereo not given in full) | inconclusive [cytotoxic, single point] | –
50 | O=C(NNC(=O)c1cc(Br)ccc1Cl)c1csc(N2CCOCC2)n1 | inactive | –

Row | Structure (SMILES) | Potency | activity, negative = toxicity
51 | O=C(Nc1ccccc1N1CCOCC1)c1ccc([N+](=O)[O-])s1 | inconclusive [cytotoxic, partial curve] | –
52 | CCOc1cccc(C(=O)N(Cc2ccco2)C2CCS(=O)(=O)C2)c1 (stereo not given) | inactive | –
53 | CC(C)(CC(=O)O)CC(=O)NNc1ncccc1C#N | inactive | –
54 | CCOC(=O)c1sc(NC(=O)C2C3C=CC(C3)C2C(=O)O)nc1C (stereo not given) | inactive | –
55 | FC(F)(F)Oc1ccc(NC(=S)NCc2ccccc2)cc1 | inconclusive [cytotoxic, single point] | –
56 | CC1CC2(CCCCC2)N2C(=O)C(=O)c3cccc1c32 (stereo not given) | inconclusive [cytotoxic, single point] | –
57 | CCOc1ccc2[nH]c(C(=O)N/N=C/c3ccc(OC)cc3)cc2c1 | active: 1.3 µM | –
58 | CCNc1ccc2noc3c2c1C(=O)c1ccccc1-3 | inconclusive [cytotoxic, single point] | –
59 | COc1cc(/C=N/OCC(=O)NC2CCCCC2C)ccc1OCc1ccc(Cl)cc1 (stereo not given) | inconclusive [cytotoxic, single point] | –
60 | Cc1cccc(CCNS(=O)(=O)c2cnc[nH]2)c1 | inactive | –
61 | COc1cc(C2C(C#N)=C(C)NC3=C2C(=O)c2ccccc23)cc(OC)c1OC (stereo not given) | active: 0.794 µM | –
62 | O=C(CCNC(=O)C1CCN(S(=O)(=O)c2ccccc2)CC1)Nc1cccc(C(F)(F)F)c1 | inactive | –
63 | CCOC(=O)C1CCN(C(c2cc3ccc(C)c(C)c3[nH]c2=O)c2nnnn2C2CCCCC2)CC1 (stereo not given) | inconclusive [cytotoxic, single point] | –
64 | Cc1ccc(C(=O)N2CCCCC2)cc1S(=O)(=O)N1CCOCC1 | inactive | –
65 | CCCCNC(=S)N1CCN(C(c2ccccc2)c2ccccc2)CC1 | inactive | –
66 | Cc1ccc(N(C)S(=O)(=O)c2ccc(-c3cnc(C4CC4)o3)cc2)cc1 | inconclusive [cytotoxic, full curve, poor fit] | –
67 | C/C(CC(=O)Nc1cccc(C(F)(F)F)c1)=N/NC(=O)C(=O)NCCO | inconclusive [cytotoxic, single point] | –
68 | COc1ccc(-n2sc3ccccc3c2=O)cc1 | inconclusive [cytotoxic, single point] | –
69 | COc1cc(C(=O)NC(=S)Nc2ccccc2N2CCCC2)cc(OC)c1OC | inconclusive [cytotoxic, single point] | –
70 | COc1ccc(Cl)cc1N(CC(=O)Nc1cccc(SC)c1)S(C)(=O)=O | inconclusive [cytotoxic, partial curve] | –
71 | CC(C)c1cc2cc3ccc(=O)oc3cc2o1 | inconclusive [rising, partial curve] | –
72 | Cc1ccc(C(=O)N/N=C/c2cccc(OC(=O)/C=C/c3ccco3)c2)cn1 | inactive | –
73 | CCOC(=O)N1CCN(Cc2nnc(-c3ccccc3C)o2)CC1 | – | inconclusive: 33.9%
74 | Cc1cc(C)nc(/N=C(\N)Nc2ccc(OCc3ccccc3)cc2)n1 | inconclusive [cytotoxic, single point] | –
75 | COc1ccc(NC(=O)C2Cc3c(-c4ccc5c(c4)OCO5)ccnc3O2)cn1 (stereo not given) | inconclusive [cytotoxic, full curve] | –
